Results: PubChem BioAssay (NCATS)
“And” between values parts separate entries of the source, which are not always exact repeats. Equal values may be shown once. The inconclusive results got no clear call from the source; some entries with a clear call stand among them for comparison. Where the call is inconclusive, the potency comes from a doubtful curve fit. The source made the active and inactive calls. The call rests on the fitted dose curve; in most records, active means well fitted cell-killing curve with a large enough effect; inconclusive means small, poorly fitted or top-dose-only effect, or effect the other way; inactive means no such curve, though single readings can be large or run the other way.

Experiment: Viability qHTS for spleen associated tyrosine kinase inhibitor (SYKi) naive MV4-11 cells (AID 1963823); further: nearly all actives have a fitted effect of over 40% in size
Details: MV4-11 AML viability, CellTiter-Glo luminescence, 72 h; viability (% of control): at 45 µM (top of the series)
Method in brief: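 qHTS, SYK inhibitor-naive MV4-11; 500 cells/well; 72 hr compound exposure, 37 C; CellTiter-Glo added, 10 min RT; luminescence read.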
Potency means the concentration at half of the fitted maximal effect; tags describe the fitted curve by direction and shape.

| Structure (SMILES) | Potency | viability (% of control) |
| --- | --- | --- |
| CC(=O)OCC1(O)CCC2C(COC3OC(CO)C(O)C(O)C3OC(=O)/C=C/c3ccc(O)cc3)=COC(OC(=O)CC(C)C)C21 (stereo not given) | inconclusive: 9.68 µM [cytotoxic, single point] | – |
| NC(=O)[C@@H]1CSSCCC(=O)N[C@@H](CCCCN=C(N)N)C(=O)NCC(=O)N[C@@H](CC(=O)O)C(=O)N[C@@H](Cc2c[nH]c3ccccc23)C(=O)N2CCC[C@H]2C(=O)N1 | inconclusive: 33.5 µM [cytotoxic, single point] | – |
| C/C=C/c1ccc(OC)cc1 | – | inactive: 82.1% |
| Cn1c(=O)cc(N2CCCC(N)C2)n(Cc2ccccc2C#N)c1=O (stereo not given) | – | inactive: 56.1% |
| O=C(O)CCC(=O)Nc1ccc(S(=O)(=O)Nc2nccs2)cc1 | – | inactive: 80.3% |
| CCCCCCCCCCCCCCCC(=O)O | inconclusive: 5.96 µM [cytotoxic, partial curve, poor fit] | – |
| C[C@H]1CO[C@@H]2Cn3cc(C(=O)NCc4ccc(F)cc4F)c(=O)c(O)c3C(=O)N12 | inconclusive: 9.2 µM [cytotoxic, partial curve] | – |
| CCCc1ccc(OCC(=O)N(Cc2nc(-c3cccnc3)no2)C(C)C)cc1 | inconclusive: 9.2 µM [cytotoxic, partial curve] | – |
| CC(=O)Oc1ccc(C)cc1 | – | inactive: 71.8% |
| C=CC(C)(O)CC/C=C(\C)C(=O)OC1C(O)C(CO)OC(OC(=O)C23CCC(C)(C)CC2C2=CCC4C5(C)CCC(OC6OC(COC7OCC(OC(C)=O)C(O)C7OC7OC(COC(C)=O)C(O)C(O)C7O)C(O)C(O)C6O)C(C)(C)C5CCC4(C)C2(C)C(O)C3O)C1OC1OCC(OC2OCC(O)C(OC3OCC(O)C(O)C3O)C2O)C(O)C1O (stereo not given) | inconclusive: 2.24 µM [cytotoxic, single point] | – |
| C=C(C(=O)O)C1CCC2(C)CCCC(C)(O)C2C1 (stereo not given) | – | inactive: 63.3% |
| CC1=C(C(=O)OC2CCCCC2)C(c2ccc([N+](=O)[O-])cc2)C2=C(CC(C)(C)CC2=O)N1 (stereo not given) | inconclusive: 0.0116 µM [cytotoxic, full curve, poor fit] | – |
| CCC(C)/C=C(C)/C=C/c1cc2c(cn1)C(=O)C(C)(OC(C)=O)C(O)=C2Cl (stereo not given) | inconclusive: 20.2 µM [cytotoxic, single point] | – |
| C=C[C@@](C)(CCC=C(C)C)O[C@@H]1O[C@H](CO[C@@H]2OC[C@H](O)[C@H](O)[C@H]2O)[C@@H](O)[C@H](O)[C@H]1O | inconclusive: 2.82 µM [cytotoxic, full curve, poor fit] | – |
| COC(=O)CC(O)CC(O)/C=C/c1c(C)ccc2c1C(O)CC(C)C2 (stereo not given) | inconclusive: 10.1 µM [cytotoxic, single point] | – |
| C[C@@H]1C(=O)O[C@H]2[C@H](O)C34[C@H]5C[C@@H](C(C)(C)C)C36[C@@H](OC(=O)[C@@H]6O)O[C@@]4(C(=O)O5)[C@@]12O (stereo not given in full) | – | inactive: 82.5% [at 17.3 µM] |
| CN(C)CCC(CSc1ccccc1)Nc1ccc(S(=O)(=O)NC(=O)c2ccc(N3CCN(Cc4ccccc4-c4ccc(Cl)cc4)CC3)cc2)cc1[N+](=O)[O-] (stereo not given) | inconclusive: 0.0461 µM [cytotoxic, full curve] | – |
| CCc1cnc(N2CCC(c3nc(COc4ccc(-n5cnnn5)cc4)cs3)CC2)nc1 | inconclusive: 1.84 µM [cytotoxic, full curve] | – |
| C[C@@H](N)C(=O)O | inconclusive: 1.19 µM [cytotoxic, full curve, poor fit] | – |
| C/C=C/C=C/C=C/C(=O)O[C@@H]1[C@@H](OC)C2=C(C(=O)N(C(C)C(=O)O)C2)[C@@]2(C)CCCC(C)(C)[C@H]12 (stereo not given in full) | – | inactive: 70.5% [at 17.3 µM] |

| Structure (SMILES) | Potency | viability (% of control) |
| --- | --- | --- |
| C=C1CC[C@H]2[C@@](C)(CCC(O)[C@@]2(C)CO)[C@@H]1CCC1=CCOC1=O (stereo not given in full) | – | inactive: 34.7% |
| CC[C@@H](C)[C@H](NC(=O)C(C)(C)NC(=O)[C@H](CCC(N)=O)NC(=O)C(C)(CC)NC(=O)[C@H](Cc1c[nH]c2ccccc12)NC(C)=O)C(=O)N[C@H](C(=O)NC(C)(C)C(=O)N[C@@H](CC(C)C)C(=O)NC(C)(C)C(=O)N1CCC[C@H]1C(=O)N[C@@H](CCC(N)=O)C(=O)NC(C)(C)C(=O)N1CC(O)C[C@H]1C(=O)NC(C)(CC)C(=O)C1CC[C@@H](C(=O)N[C@@H](Cc2ccccc2)C(=O)NCC(=O)O)N1)C(C)O (stereo not given in full) | inconclusive: 2.24 µM [cytotoxic, partial curve] | – |
| O=S(=O)(c1cccc2c(I)cccc12)N1CCCNCC1 | active: 7.42 µM and inconclusive: 18.4 µM [cytotoxic, partial curve] | – |
| CC/C=C/C(O)C(O)C1=C(C)C(=O)C2(O1)C(=O)NC(OC)(C(=O)c1ccccc1)C2O (stereo not given) | – | inactive: 83% [at 17.3 µM] |
| O=c1cc(N2CCOCC2)nc2c3ccccc3ccn12 | inconclusive: 20.6 µM [cytotoxic, partial curve] | – |
| CC(C)C(=O)Nc1cccc(C(F)(F)F)c1 | inconclusive: 18.8 µM [cytotoxic, partial curve, poor fit] | – |
| CCC(C)/C=C(C)/C=C/C1=CC2=C(Cl)C(=O)C(C)(OC(C)=O)C(=O)C2=CN1CCCC(=O)O (stereo not given) | inconclusive: 14.2 µM [cytotoxic, partial curve, poor fit] | – |
| COc1ccc(CC(=O)NCc2ccccc2-c2ccccc2C(=O)NCCc2cccnc2)cc1 | inconclusive: 16.4 µM [cytotoxic, partial curve, poor fit] | – |
| C=C1C(=O)OC2/C=C(\COC(C)=O)CC/C=C(\C=O)CC(OC(=O)CC(C)C)C12 (stereo not given) | active: 1.26 µM | – |
| CC(C)(O)CC(CO)NC(=O)CC(O)CC(=O)Cc1ccccc1 (stereo not given) | – | inactive: 72.1% |
| CNCCCC1(c2ccccc2)OC(C)(C)c2ccccc21 (stereo not given) | inconclusive: 20.6 µM [cytotoxic, partial curve] | – |
| CN(C)CC(=O)N1CCC[C@@H](n2nc(-c3ccc(Oc4ccccc4)cc3)c3c(N)ncnc32)C1 | inconclusive: 0.103 µM [cytotoxic, full curve] | – |
| O=C(NCC(=O)N1CCCC1)Nc1ccc2ccccc2c1 | active: 5.8 µM | – |
| C=C1CC/C=C(/CO)C(=O)C[C@@H]2[C@@H]1CC2(C)C | inconclusive: 23.1 µM [cytotoxic, partial curve, poor fit] | – |
| COC(=O)Cc1cc2c(c([N+](=O)[O-])c1)N(C(=O)CC[C@H](N)C(=O)O)CC2 | – | inactive: 85.7% |
| O=C(NCCc1c[nH]c2ccc(O)cc12)c1ccc2ccccc2c1O | inconclusive: 13 µM [cytotoxic, partial curve] | – |
| O=C(OCC1=CC(Cl)C(O)C(OC(=O)c2ccccc2)C1O)c1ccccc1 (stereo not given) | inconclusive: 9.68 µM [cytotoxic, single point] | – |
| COC(=O)c1c(Cl)c(Cl)c(C(=O)OC)c(Cl)c1Cl | inconclusive: 0.0034 µM [rising, full curve, poor fit] | – |
| O=C(c1ccccc1)c1ccccc1 | – | inactive: 80% |
| O=C1CCC(=O)N(O)CCCCCNC(=O)CCC(=O)N(O)CCOCCNC(=O)CCC(=O)N(O)CCCCCN1 | inconclusive: 0.432 µM [cytotoxic, partial curve, poor fit] | – |
